According to the supplement of paper PMC4967469:
Lines with a small IC50 respond at low doses; a limit (>, <) means that the fit lies beyond the doses tested. For AUC the same curve is integrated over the 256-fold range of doses and scaled to a fraction: 1 means no effect, lower means more sensitive. For some of these results: Any top dose called inferred was derived from the fitted curves, not read from the paper. For some of these results: An entry number marks a drug with two screens in the source, which often give different values.

How the values were obtained:
Assay in all cases: Viability of human cancer cell lines after 72 h of drug (GDSC screen)
CUDC-101 = compound: C#Cc1cccc(Nc2ncnc3cc(OC)c(OCCCCCCC(=O)NO)cc23)c1 [CUDC-101]; conditions: top dose 5.12 µM; top dose inferred
Experimental: (§1)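 Human cancer cell lines in 384-well plates, medium with 10% serum, drug for 72 h over a 256-fold dose range (nine 2-fold or five 4-fold steps up to the top dose). Adherent lines were fixed and stained with the nucleic acid dye Syto60, suspension lines read with resazurin; signal relative to control wells, capped at 0 and 100%. One two-parameter sigmoid per drug and line, fitted in a mixed model over all curves with the slope shared within a line.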

AC220 = compound: CC(C)(C)c1cc(NC(=O)Nc2ccc(-c3cn4c(n3)sc3cc(OCCN5CCOCC5)ccc34)cc2)no1 [AC220]; conditions: top dose 1.024 µM; top dose inferred
Experimental: as §1

RDEA119 = compound: COc1cc(F)c(F)c(Nc2ccc(I)cc2F)c1NS(=O)(=O)C1(C[C@H](O)CO)CC1 [RDEA119]; conditions: top dose 5 µM, top dose inferred
Experimental: as §1

JNK-9L = compound: Fc1cc(-c2ccnc(Nc3ccc(-n4cnc(N5CCOCC5)n4)cc3)n2)cc(N2CCOCC2)c1 [JNK-9L]; conditions: top dose 5.12 µM; top dose inferred
Experimental: as §1

OSU-03012 = compound: NCC(=O)Nc1ccc(-n2nc(C(F)(F)F)cc2-c2ccc3c(ccc4ccccc43)c2)cc1 [OSU-03012]; conditions: top dose 16 µM; top dose inferred
Experimental: as §1

5-Fluorouracil = compound: O=c1[nH]cc(F)c(=O)[nH]1 [5-Fluorouracil]; conditions: top dose 32 µM; top dose inferred
Experimental: as §1

QS11 = compound: OC[C@H](Cc1ccccc1)Nc1nc(Oc2ccc3c(c2)CCC3)nc2c1ncn2Cc1ccc(-c2ccccc2)cc1 [QS11]; conditions: top dose 10.24 µM
Experimental: as §1

| Cell Line | AUC (CUDC-101) | IC50 (CUDC-101) | AUC (AC220) | IC50 (AC220) | AUC (RDEA119; screen: GDSC drug entry 1014) | IC50 (RDEA119; screen: GDSC drug entry 1014) | AUC (RDEA119; screen: GDSC drug entry 1526) | IC50 (RDEA119; screen: GDSC drug entry 1526) | AUC (JNK-9L) | IC50 (JNK-9L) | AUC (OSU-03012) | IC50 (OSU-03012) | AUC (5-Fluorouracil) | IC50 (5-Fluorouracil) | AUC (QS11) | IC50 (QS11) |
| --- | --- | --- | --- | --- | --- | --- | --- | --- | --- | --- | --- | --- | --- | --- | --- | --- |
| NB12 (neuroblastoma, adherent) | 0.129 | < 20 nM | 0.889 | > 1020 nM | 0.963 | > 5 µM | 0.666 | 1.07 µM | 0.567 | 518 nM | 0.853 | > 16 µM | 0.797 | 21.4 µM | 0.963 | > 10.2 µM |
| NB13 (neuroblastoma, adherent) | 0.278 | 81.8 nM | 0.99 | > 1020 nM | 0.977 | > 5 µM | 0.982 | > 5 µM | 0.641 | 745 nM | 0.691 | 3.19 µM | 0.639 | 4.62 µM | 0.873 | 7.92 µM |
| NB69 (neuroblastoma, adherent) | 0.592 | 555 nM | 0.967 | > 1020 nM | 0.591 | 0.538 µM | – | – | 0.429 | 209 nM | 0.78 | 5.8 µM | 0.864 | 22.9 µM | 0.956 | > 10.2 µM |
| NB(TU)1-10 (neuroblastoma, adherent) | 0.52 | 359 nM | 0.992 | > 1020 nM | 0.884 | 4.15 µM | 0.967 | > 5 µM | 0.562 | 460 nM | 0.747 | 4.53 µM | 0.698 | 6.57 µM | 0.911 | > 10.2 µM |
| NCI-H23 (lung adenocarcinoma, adherent) | 0.815 | 2780 nM | 0.968 | > 1020 nM | 0.885 | > 5 µM | 0.791 | 2.23 µM | 0.747 | 1630 nM | 0.877 | 15.8 µM | 0.89 | > 32 µM | 0.987 | > 10.2 µM |
| NCI-H28 (mesothelioma, adherent) | 0.962 | > 5120 nM | 0.98 | > 1020 nM | 0.842 | > 5 µM | – | – | 0.553 | 467 nM | 0.849 | > 16 µM | 0.891 | > 32 µM | 0.981 | > 10.2 µM |
| NCI-H64 (small cell lung carcinoma, suspension) | 0.434 | 222 nM | 0.995 | > 1020 nM | 0.996 | > 5 µM | – | – | 0.581 | 505 nM | 0.829 | 6.67 µM | 0.971 | > 32 µM | 0.939 | 10.2 µM |
| NCI-H82 (small cell lung carcinoma, suspension) | 0.766 | 1800 nM | 0.985 | > 1020 nM | 0.987 | > 5 µM | 0.981 | > 5 µM | 0.843 | 3360 nM | 0.933 | > 16 µM | 0.71 | 7.54 µM | 0.985 | > 10.2 µM |
| NCI-H209 (small cell lung carcinoma, suspension) | 0.974 | > 5120 nM | 0.925 | > 1020 nM | 0.985 | > 5 µM | 0.969 | > 5 µM | 0.722 | 1440 nM | 0.887 | > 16 µM | 0.976 | > 32 µM | 0.974 | > 10.2 µM |
| NCI-H211 (small cell lung carcinoma, adherent) | 0.395 | 166 nM | 0.953 | > 1020 nM | 0.965 | > 5 µM | 0.941 | > 5 µM | 0.667 | 917 nM | 0.8 | 7.46 µM | 0.878 | 31.1 µM | 0.924 | > 10.2 µM |
| NCI-H226 (lung squamous cell carcinoma, adherent) | 0.558 | 465 nM | 0.987 | > 1020 nM | 0.957 | > 5 µM | 0.847 | 3.97 µM | 0.667 | 956 nM | 0.753 | 5.61 µM | 0.769 | 12.7 µM | 0.967 | > 10.2 µM |
| NCI-H292 (lung adenocarcinoma, adherent) | 0.293 | 73.1 nM | 0.978 | > 1020 nM | – | – | 0.408 | 0.165 µM | 0.591 | 602 nM | 0.689 | 3.84 µM | 0.549 | 2.81 µM | 0.889 | > 10.2 µM |
| NCI-H345 (small cell lung carcinoma, suspension) | 0.42 | 191 nM | 0.99 | > 1020 nM | 0.985 | > 5 µM | 0.989 | > 5 µM | 0.852 | 4300 nM | 0.979 | > 16 µM | 0.97 | > 32 µM | 0.972 | > 10.2 µM |
| NCI-H358 (lung adenocarcinoma, adherent) | 0.489 | 297 nM | 0.982 | > 1020 nM | 0.883 | > 5 µM | 0.823 | 3.38 µM | 0.494 | 308 nM | 0.742 | 5.4 µM | 0.747 | 11.3 µM | 0.962 | > 10.2 µM |
| NCI-H510A (small cell lung carcinoma, semi-adherent) | 0.31 | 98.9 nM | 0.989 | > 1020 nM | 0.805 | 2.27 µM | – | – | 0.792 | 2100 nM | 0.936 | > 16 µM | 0.896 | > 32 µM | 0.979 | > 10.2 µM |
| NCI-H522 (lung adenocarcinoma, adherent) | 0.304 | 80.6 nM | 0.98 | > 1020 nM | 0.981 | > 5 µM | 0.944 | > 5 µM | 0.701 | 1320 nM | 0.722 | 4.85 µM | 0.967 | > 32 µM | 0.94 | > 10.2 µM |
| NCI-H524 (small cell lung carcinoma, suspension) | 0.837 | 2920 nM | 0.974 | > 1020 nM | 0.983 | > 5 µM | 0.987 | > 5 µM | 0.883 | 4480 nM | 0.99 | > 16 µM | 0.991 | > 32 µM | 0.991 | > 10.2 µM |
